This is an account of results in patent US20100158922A1.

Sequences and labels used below:
B1: AD1.2R2P2_D6 scFv (scFv, part only; not given: scFv linker, part only)
scFv, part: [about 100 residues omitted here]DGWNALGWLESWGKGTMVTVSSNFMLTQPHSVSESPGKTVTISCTGSSGSIASNYVQWYQQRPGSAPTTVIYEDNQRPSGVPDRFSGSIDSSSNSASLTISGLKTEDEADYYCQSYDSSNQEVVFGGGTKLTVLG
B2: AD1.4R4P1_B9 scFv (scFv, part only; not given: linker, part only)
scFv, part: [about 100 residues omitted here]DLTVGGPWYYFDYWGQGTLVTVSSNFMLTQPHSVSESPGKTVTISCTRSSGSIVSNYVQWYQQRPGSAPTTVIFDDDQRPSGVPGRFSGSLDSSSNSASLTISGLQTEDEADYYCQSYDSSNVVFGGGTKVTVLG
B3: AD1.3R3P6_F9 scFv (scFv, part only; not given: scFv linker, part only)
scFv, part: [about 100 residues omitted here]GGNYGDYFDYFDYWGRGTMVTVSSNFMLTQPHSVSESPGKTVTISCTRSSGSIASNYVQWYQQRPGSAPTIVIYEDNQRPSGVPHRFSGSIDSSSNSASLTISGLKTEDEADYYCQSYEGFGGGTKLTVLG
B4: AD1.4R4P2_G7 scFv (scFv, part only; not given: linker, part only)
scFv, part: [about 100 residues omitted here]DGWNALGWLESWGQGTMVTVSSNFMLTQPHAVSESPGKTVTISCTGRNGNIASNYVQWYQQRPDSAPTLIIFEDTQRPSGVPTRLSGSIDTSSNSASLIISSLRTEDEADYYCQSSDSNRVLFGGGTKVTVLG
B5: AC1.2R3P2_A6 scFv (scFv, part only; not given: linker, part only)
scFv, part: [about 100 residues omitted here]DGSSGWYVPHWFDPWGRGTLVTVSSNFMLTQPHSVSESPGKTVTISCTRSSGSIVSNYVQWYQQRPGSAPTTVIYEDNRRPSGVPDRFSGSIDSSSNTASLTISGLEAEDEADYYCQSYDGSNRWMFGGGTKLTVLG
B6: AC1.2R2P2_D8 scFv (scFv, part only; not given: linker, part only)
scFv, part: [about 100 residues omitted here]DGSSGWYVPHWFDPWGQGTLVTVSSNFMLTQPHSVSESPGKTVTISCTRSSGSIVSNYVQWYQQRPGSSPTTVIYEDNQRPSGVPDRFSGSIDSSSNSASLTISGLKTEDEADYYCQSYDSNNFWVFGGGTKLTVLG
B7: AD1.1R3P3_G9 scFv (scFv, part only; not given: linker, part only)
scFv, part: [about 100 residues omitted here]DFWVITSGNDYWGRGTTVTVSSNFMLTQPHSVSESPGKTVTISCTRSSGSIASNYVQWYQQRPGSSPTTVIFEDNRRPSGVPDRFSGSIDTSSNSASLTISGLKTEDEADYYCQSFDSTNLVVFGGGTKLTVLG
B8: AC1.2R3P2_B4 scFv (scFv, part only; not given: linker, part only)
scFv, part: [about 100 residues omitted here]DHSSGWYVISGMDVWGRGTMVTVSSNFMLTQPHSVSESPGKTVTISCTRSSGSIASNYVQWYQQRPGSSPTTVISEDNQRPSGVPDRFSGSVDSSSNSASLTISGLRTEDEADYYCQSNDSDNVVFGGGTKLTVLG
B9: AD1.3R3P5_F8 scFv (scFv, part only; not given: linker, part only)
scFv, part: [about 100 residues omitted here]VGSWYLEDFDIWGRGTMVTVSSNFMLTQPHSVSESPGKTVTISCTRSSGSIASNYVHWYQQRPGSSPTTVIYEDNRRPSGVPARFSGSIDSSSNSASLTISGLETDDEADYYCQSSDTTYHGGVVFGGGTKLTVLG
B10: AD1.3R3P6_E1 scFv (scFv, part only; not given: linker, part only)
scFv, part: [about 100 residues omitted here]RSFDSGGSFEYWGQGTMVTVSSNFMLTQPHSVSESPGKTVTISCTRSSGYIASSYVQWYQQRPGSSPTTVIFEDDRRPSGVPDRFSGSIDGSSNSASLTISGLRTEDEADYYCQSYDDTTPWVFGGGTKLTVLG
B11: AD1.3R3P6_G10 scFv (scFv, part only; not given: linker, part only)
scFv, part: [about 100 residues omitted here]DGWNALGWLESWGKGTTVTVSSNFMLTQPHSVSESPGKTVTISCAGSSGSIASNYVQWYQQRPGSAPTAVIYEDNQRPSGVPDRFSGSIDSSSNSASLTISGLKTEDEADYYCQSYSYNNQVVFGGGTKVTVLG
B12: AC1.4R4P2_C10 scFv (scFv, part only; not given: linker, part only)
scFv, part: [about 100 residues omitted here]DGSSGWYVPHWFDPWGRGTMVTVSSNFMLTQPHSVSESPGKTVTISCTRSSGTIASNYVQWYQQRPGSSPTTVIYEDNQRPSGVPDRFSGSIDSSSNSASLTISGLKTEDEADYYCQSYDNSNHWVFGGGTKVTVLG
B13: AD1.4R4P2_C9 scFv (scFv, part only; not given: linker, part only)
scFv, part: [about 100 residues omitted here]DGWNALGWLESWGRGTLVTVSSNFMLTQPHSVSESPGRTITISCTRSGGSIGSYYVQWYQQRPGTAPTTVIYDDKKRPSGVPDRFSGSIDSSSNSASLTISGLKTEDEADYYCQSYDSNNLVVFGGGTKVTVLG

In this assay the target is recombinant human IFNγ (human) (UniProt P01579). Description: cell-based or functional assay.
Sequence of UniProt P01579 (P01579 24-166 limits assumed): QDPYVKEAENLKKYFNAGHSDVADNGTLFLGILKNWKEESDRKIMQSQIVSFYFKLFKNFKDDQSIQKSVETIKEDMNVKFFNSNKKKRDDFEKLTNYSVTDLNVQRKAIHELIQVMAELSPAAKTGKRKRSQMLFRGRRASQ
Consider B1, for which the Percentage inhibition of IFNγ-induced reporter gene expression at 0.011 nM scFv came out at 0%, the Percentage inhibition of IFNγ-induced reporter gene expression at 0.043 nM scFv came out at 11%, the Percentage inhibition of IFNγ-induced reporter gene expression at 0.17 nM scFv amounted to 31% and the Percentage inhibition of IFNγ-induced reporter gene expression at 0.68 nM scFv is 73%. For the same molecule, the Percentage inhibition of IFNγ-induced reporter gene expression at 2.7 nM scFv is 82%.
Turning to B2, the Percentage inhibition of IFNγ-induced reporter gene expression at 0.011 nM scFv was determined as 0%, the Percentage inhibition of IFNγ-induced reporter gene expression at 0.043 nM scFv stood at 0%, the Percentage inhibition of IFNγ-induced reporter gene expression at 0.17 nM scFv was found to be 56% and the Percentage inhibition of IFNγ-induced reporter gene expression at 0.68 nM scFv amounted to 53%. The Percentage inhibition of IFNγ-induced reporter gene expression at 2.7 nM scFv is 62%.
For the molecule B3, the Percentage inhibition of IFNγ-induced reporter gene expression at 0.011 nM scFv is 0%, the Percentage inhibition of IFNγ-induced reporter gene expression at 0.043 nM scFv is 0%, the Percentage inhibition of IFNγ-induced reporter gene expression at 0.17 nM scFv was 3% and the Percentage inhibition of IFNγ-induced reporter gene expression at 0.68 nM scFv was 32%. Besides, the Percentage inhibition of IFNγ-induced reporter gene expression at 2.7 nM scFv came to 68%.
For the molecule B4, the Percentage inhibition of IFNγ-induced reporter gene expression at 0.011 nM scFv was 4%, the Percentage inhibition of IFNγ-induced reporter gene expression at 0.043 nM scFv amounted to 38%, the Percentage inhibition of IFNγ-induced reporter gene expression at 0.17 nM scFv amounted to 24% and the Percentage inhibition of IFNγ-induced reporter gene expression at 0.68 nM scFv is 73%. In addition, the Percentage inhibition of IFNγ-induced reporter gene expression at 2.7 nM scFv turned out to be 75%.
In the case of B5, the Percentage inhibition of IFNγ-induced reporter gene expression at 0.011 nM scFv stood at 0%, the Percentage inhibition of IFNγ-induced reporter gene expression at 0.043 nM scFv stood at 87%, the Percentage inhibition of IFNγ-induced reporter gene expression at 0.17 nM scFv turned out to be 100% and the Percentage inhibition of IFNγ-induced reporter gene expression at 0.68 nM scFv was 92%. For the same molecule, the Percentage inhibition of IFNγ-induced reporter gene expression at 2.7 nM scFv came to 82%.
Consider B6, for which the Percentage inhibition of IFNγ-induced reporter gene expression at 0.011 nM scFv was found to be 0%, the Percentage inhibition of IFNγ-induced reporter gene expression at 0.043 nM scFv amounted to 10%, the Percentage inhibition of IFNγ-induced reporter gene expression at 0.17 nM scFv came out at 40% and the Percentage inhibition of IFNγ-induced reporter gene expression at 0.68 nM scFv came to 60%. The Percentage inhibition of IFNγ-induced reporter gene expression at 2.7 nM scFv turned out to be 60%.
Take B7: the Percentage inhibition of IFNγ-induced reporter gene expression at 0.011 nM scFv is 0%, the Percentage inhibition of IFNγ-induced reporter gene expression at 0.043 nM scFv was 0%, the Percentage inhibition of IFNγ-induced reporter gene expression at 0.17 nM scFv was 0% and the Percentage inhibition of IFNγ-induced reporter gene expression at 0.68 nM scFv was 12%. Moreover, the Percentage inhibition of IFNγ-induced reporter gene expression at 2.7 nM scFv came to 52%.
On to B8, for which the Percentage inhibition of IFNγ-induced reporter gene expression at 0.011 nM scFv was 0%, the Percentage inhibition of IFNγ-induced reporter gene expression at 0.043 nM scFv was 5%, the Percentage inhibition of IFNγ-induced reporter gene expression at 0.17 nM scFv was found to be 21% and the Percentage inhibition of IFNγ-induced reporter gene expression at 0.68 nM scFv is 49%. In addition, the Percentage inhibition of IFNγ-induced reporter gene expression at 2.7 nM scFv turned out to be 63%.
Regarding B9, the Percentage inhibition of IFNγ-induced reporter gene expression at 0.011 nM scFv came to 0%, the Percentage inhibition of IFNγ-induced reporter gene expression at 0.043 nM scFv worked out at 0%, the Percentage inhibition of IFNγ-induced reporter gene expression at 0.17 nM scFv was determined as 48% and the Percentage inhibition of IFNγ-induced reporter gene expression at 0.68 nM scFv amounted to 64%. In addition, the Percentage inhibition of IFNγ-induced reporter gene expression at 2.7 nM scFv was 64%.
With B10, the Percentage inhibition of IFNγ-induced reporter gene expression at 0.011 nM scFv worked out at 0%, the Percentage inhibition of IFNγ-induced reporter gene expression at 0.043 nM scFv was 10%, the Percentage inhibition of IFNγ-induced reporter gene expression at 0.17 nM scFv is 38% and the Percentage inhibition of IFNγ-induced reporter gene expression at 0.68 nM scFv stood at 68%. For the same molecule, the Percentage inhibition of IFNγ-induced reporter gene expression at 2.7 nM scFv worked out at 43%.
On to B11, for which the Percentage inhibition of IFNγ-induced reporter gene expression at 0.011 nM scFv was 0%, the Percentage inhibition of IFNγ-induced reporter gene expression at 0.043 nM scFv is 0%, the Percentage inhibition of IFNγ-induced reporter gene expression at 0.17 nM scFv is 0% and the Percentage inhibition of IFNγ-induced reporter gene expression at 0.68 nM scFv was determined as 44%. Also, the Percentage inhibition of IFNγ-induced reporter gene expression at 2.7 nM scFv worked out at 47%.
On to B12, for which the Percentage inhibition of IFNγ-induced reporter gene expression at 0.011 nM scFv amounted to 19%, the Percentage inhibition of IFNγ-induced reporter gene expression at 0.043 nM scFv amounted to 34%, the Percentage inhibition of IFNγ-induced reporter gene expression at 0.17 nM scFv was 53% and the Percentage inhibition of IFNγ-induced reporter gene expression at 0.68 nM scFv came out at 50%. Further, the Percentage inhibition of IFNγ-induced reporter gene expression at 2.7 nM scFv was 63%.
For the molecule B13, the Percentage inhibition of IFNγ-induced reporter gene expression at 0.011 nM scFv worked out at 0%, the Percentage inhibition of IFNγ-induced reporter gene expression at 0.043 nM scFv turned out to be 33%, the Percentage inhibition of IFNγ-induced reporter gene expression at 0.17 nM scFv was found to be 58% and the Percentage inhibition of IFNγ-induced reporter gene expression at 0.68 nM scFv was 67%. Besides, the Percentage inhibition of IFNγ-induced reporter gene expression at 2.7 nM scFv stood at 56%.
